# Out of some 310,000 compounds screened, about 14,000 (4.5%) showed an effect of 50% or more. The effect is printed as a negative number. The list shows a part of the results.
# Molecular target: human ether-à-go-go-related gene (hERG) potassium channel (human, UniProt Q12809)
# Assay: primary screen, population patch clamp on CHO cells stably expressing hERG
# 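Note: peak tail current of the secondary pulse compared with the same well before compound.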
# Sequence of human ether-à-go-go-related gene (hERG) potassium channel (Q12809 whole entry, looked up): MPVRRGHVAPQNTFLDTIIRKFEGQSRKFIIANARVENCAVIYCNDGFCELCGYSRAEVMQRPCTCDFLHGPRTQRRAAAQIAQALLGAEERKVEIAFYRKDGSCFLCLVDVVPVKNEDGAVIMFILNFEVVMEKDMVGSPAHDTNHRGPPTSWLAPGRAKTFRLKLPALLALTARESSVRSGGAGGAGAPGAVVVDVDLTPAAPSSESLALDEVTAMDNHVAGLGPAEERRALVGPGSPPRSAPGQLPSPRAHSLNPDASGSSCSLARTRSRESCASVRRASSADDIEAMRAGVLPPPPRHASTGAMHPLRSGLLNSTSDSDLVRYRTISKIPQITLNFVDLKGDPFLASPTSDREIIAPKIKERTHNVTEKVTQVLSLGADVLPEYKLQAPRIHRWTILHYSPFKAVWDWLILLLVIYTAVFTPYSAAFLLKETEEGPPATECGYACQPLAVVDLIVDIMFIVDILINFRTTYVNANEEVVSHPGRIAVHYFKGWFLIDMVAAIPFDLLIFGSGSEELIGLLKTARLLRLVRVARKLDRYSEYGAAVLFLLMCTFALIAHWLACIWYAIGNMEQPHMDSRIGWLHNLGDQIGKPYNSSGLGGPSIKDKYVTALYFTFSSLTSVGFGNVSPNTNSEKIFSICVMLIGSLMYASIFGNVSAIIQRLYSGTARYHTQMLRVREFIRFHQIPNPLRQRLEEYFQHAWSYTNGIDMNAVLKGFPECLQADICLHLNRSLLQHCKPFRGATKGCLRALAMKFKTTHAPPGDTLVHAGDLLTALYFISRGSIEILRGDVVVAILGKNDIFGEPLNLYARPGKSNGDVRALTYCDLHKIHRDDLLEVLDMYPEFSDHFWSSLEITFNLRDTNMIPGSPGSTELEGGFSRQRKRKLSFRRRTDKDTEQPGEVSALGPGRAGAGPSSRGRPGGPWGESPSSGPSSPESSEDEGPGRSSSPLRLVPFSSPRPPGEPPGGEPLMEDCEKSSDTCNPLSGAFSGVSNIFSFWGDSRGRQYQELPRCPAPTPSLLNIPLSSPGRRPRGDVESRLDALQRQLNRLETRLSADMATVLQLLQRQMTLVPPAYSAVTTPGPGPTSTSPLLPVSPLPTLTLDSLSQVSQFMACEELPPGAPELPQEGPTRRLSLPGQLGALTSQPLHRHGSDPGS
row,SMILES,"hERG current change (%, negative = inhibition) at 10uM [%]"
1,COc1cccc(CC2(CO)CCN(C(=O)NCCc3ccccc3)CC2)c1,0.136
2,Cc1c(C(=O)C(=O)NCc2cccs2)c2ccccc2n1C,-15.4
3,S=c1nc(SCc2ccccc2)[nH]c2ccccc12,-15.3
4,O=C(NC1CCCCCC1)C1CCCN(S(=O)(=O)c2cnc[nH]2)C1 (stereo not shown),21.9
5,CC(C(=O)NC1CCCc2ccccc21)N1CCN(c2ccc(F)cc2)CC1 (stereo not shown),-35.6
6,COc1ccc(-n2ccnc2SCC(=O)Nc2ccc(OC)cc2OC)cc1,2.82
7,CN1CCN(Cc2nc3ccccc3c(=O)n2Cc2nc(-c3ccc4ccccc4c3)cs2)CC1,-6.55
8,COc1ccnc(-n2cccc2C#N)c1C#N,3.69
9,CN(Cc1ccccc1)C(=O)c1ccccc1NC(=O)c1ccccc1,-12.7
10,CCOC(=O)Cc1nnc(NCc2ccccc2)c2ccccc12,-14.1
11,CC(OCC(O)CN1CCCCC1CCO)c1ccc(Cl)cc1 (stereo not shown),4.2
12,CN(C(=O)COc1ccc(Cl)cc1Br)C1CCCCC1,-11.5
13,CC1CCN(S(=O)(=O)c2cccc(C(=O)NCC3CCCO3)c2)CC1 (stereo not shown),2.25
14,O=C(N/N=C/c1ccc(OC(F)F)cc1)C1=COCCO1,-13.2
15,CCC(C(=O)NCCc1ccc(C)cc1)n1nc(C)c2c(C)n(-c3ccccc3)nc2c1=O (stereo not shown),-39.1
16,CCc1ccc(OC)c(S(=O)(=O)Nc2ccc(Cc3ccncc3)cc2)c1,-24.8
17,CCOC(=O)C1=CC[C@@H](c2cc3ccc(OC)cc3n2C)N(S(=O)(=O)c2ccc(C)cc2)[C@H]1C(=O)OCC,0.974
18,C=CCNC(=O)CCC(=O)NNc1nc2ccccc2c2nc(-c3ccccc3)nn12,-20.8
19,CCNC(=O)c1ccc(N(C)S(=O)(=O)c2cccs2)cc1,26.5
20,COc1ccc([C@H]2CC(=O)C=C(c3cccc(OC)c3)C2)cc1,-82.1
21,CCN1CCN(CC(O)COc2ccc3c(c2)CCC3)CC1.Cl (stereo not shown),5.59
22,COc1ccccc1-c1nnc(NC(=O)c2ccc(S(=O)(=O)N(C)CC3CCCO3)cc2)o1 (stereo not shown),2.99

row,SMILES,"hERG current change (%, negative = inhibition) at 10uM [%]"
1,CN(C(=O)c1ccc(Cl)nc1)C1(c2ccccc2Cl)CCCCC1=O (stereo not shown),0.299
2,O=C(COC(=O)c1cc2ccccc2cc1O)c1ccccc1,-7.66
3,CCOC(=O)C1CCCN(C/C=C/c2ccccc2[N+](=O)[O-])C1 (stereo not shown),-68.2
4,O=C(/C=C/c1ccco1)N(Cc1ccc(F)cc1)C1CCS(=O)(=O)C1 (stereo not shown),-30.5
5,O=C(/C=C\Nc1ccccc1Br)c1ccc2c(c1)OCO2,21.5
6,Cc1csc(C(C)N(C)C(=O)CCc2nnc(CCc3ccccc3)o2)n1 (stereo not shown),-12.9
7,O=C(CN(CC1CCCO1)C(=O)CNS(=O)(=O)c1ccccc1)NCc1ccccc1 (stereo not shown),-7.15
8,Cc1noc(C)c1C(=O)OCC(=O)NCc1ccc(Cl)cc1,3.82
9,Cc1cccc(N2CCN(C(=O)c3cc4c(=O)[nH]c5ccccc5c4n3C)CC2)c1C,14.6
10,COc1ccccc1OCc1nnc(SCC(=O)N2CCCC2)o1,15.7
11,COCCn1nnnc1C(c1cccc(OC)c1OC)N1CCN(C2CCCCC2)CC1.Cl (stereo not shown),-3.08
12,COc1ccc(N=C(C)c2c(O)n(C3CCCCC3)c(=O)[nH]c2=O)c(OC)c1,4.3
13,CS(=O)(=O)NN1C(=O)c2ccccc2NC1c1cc2ccccc2nc1Cl (stereo not shown),-23.6
14,CCOC(=O)NC(=O)/C(C#N)=N\Nc1ccc(Cl)cc1,18.2
15,O=C(O)C1=C[C@H](c2ccccc2)C[C@H](OCc2ccc(CO)cc2)O1,12.7
16,O=C(O)C1CC=CCC1C(=O)Nc1ccc2c(c1)CCC2 (stereo not shown),-14.8
17,Cn1c(=O)c2c(ncn2CCOc2cccc(Br)c2)n(C)c1=O,-33.3
18,COCCn1c(SCC(=O)Nc2ccc3c(c2)OCCO3)nnc1C(C)C,2.68
19,Cc1ccc(-c2nnn(CC(=O)N(c3ccc(F)cc3)C(C(=O)NC(C)(C)C)c3ccco3)n2)o1 (stereo not shown),9.24
20,COc1cc(CN2CCC(Cc3ccccc3)CC2)cc([N+](=O)[O-])c1O,0.943
21,COc1cc(/C=C(\C#N)c2nn(CCO)c(N)c2C#N)cc(OC)c1OC,12.5
22,COc1cc(S(=O)(=O)Nc2cccc(C)c2)ccc1NC(=O)c1ccncc1,19.6

row,SMILES,"hERG current change (%, negative = inhibition) at 10uM [%]"
1,COc1cc(OC)c(C2C(C(=O)Nc3ccc(C)cc3C)=C(C)Nc3ncnn32)cc1OC (stereo not shown),16.4
2,Cc1ccc(NC(=S)Nc2c(C)n(C)n(-c3ccccc3)c2=O)cc1,-7.19
3,CCN(C(=O)c1cc2c(=O)n3ccccc3nc2n1C)C1CCCCC1,6.65
4,Fc1ccc(N2CCN(Cc3nnc(-c4ccccc4)o3)CC2)cc1,-11.9
5,COC(=O)c1ccc(CNC(=O)c2coc3ccccc3c2=O)cc1,15.9
6,O=C(N/N=C/c1c(O)ccc2ccccc12)c1cccnc1,7.7
7,Cc1nc(NC(=O)CCN2C(=O)C3CC=CCC3C2=O)sc1C (stereo not shown),-0.353
8,CCO[C@H]1OC(C(=O)O)=C[C@@H](c2ccc3c(c2)OCO3)[C@@H]1CCCO,15.6
9,CS(=O)(=O)Nc1ccc(C(=O)NCCSCc2ccco2)cc1,-44.1
10,CSc1ccc(CN2CCN(C(=O)COc3ccc(C)cc3)CC2)cc1.O=C(O)C(=O)O,-60.4
11,COc1ccc(-c2csc3nc(-c4cccnc4)nc(N4CCC(C(N)=O)CC4)c23)cc1OC,-28.9
12,Cc1c(S(=O)(=O)NC2CCCCC2)c(=O)n(C)c(=O)n1C,-2.37
13,O=C(O)CCc1ccc(-c2ccc(Cl)cc2)n1CC(=O)O,-38.4
14,O=C(Nn1cnnc1)c1cc(-c2ccccn2)nc2ccccc12,1.57
15,CC(C)NC(=O)Cn1c(SCC(=O)c2ccc(F)cc2)nc2ccccc21,6.27
16,CC(=O)c1cccc(N=Nc2c(C)[nH]c3ccccc23)c1,20.5
17,O=C1CC(N2CCC(O)(c3ccc(Cl)cc3)CC2)C(=O)N1 (stereo not shown),-1.76
18,O=C(CN1C(=O)CCOc2ccccc21)Nc1cccc(S(=O)(=O)N2CCOCC2)c1,-17.9
19,Cc1ccc(NC(=O)Nc2ccc(F)c(Cl)c2)cc1,18.7
20,Cc1ccc(S(=O)(=O)NC(CC(C)C)C(=O)Nc2nccs2)cc1 (stereo not shown),11.5
21,CNC(=O)COc1ncnc2scc(-c3ccc(F)cc3)c12,14.8
22,CCCCCC1CC(CC(=O)NC(=S)Nc2ccccc2Cl)C(=O)O1 (stereo not shown),19.8

row,SMILES,"hERG current change (%, negative = inhibition) at 10uM [%]"
1,COc1cc2c(cc1OC)C1(NCC2)C(=O)Nc2ccccc21 (stereo not shown),-1.97
2,NCCNC(=O)Cc1cccc(NC(=O)Cc2ccc(Nc3ncnc4c3ncn4[C@@H]3O[C@H](CO)[C@@H](O)[C@H]3O)cc2)c1,16.7
3,COc1ccc(C(=O)C2CCCN(Cc3cc(C)c(O)c(C)c3)C2)c(OC)c1 (stereo not shown),-61
4,COc1cc2c(cc1OC)CN(CC(=O)Nc1cccc(C)c1)CC2,-18.8
5,Cc1ccccc1C(=O)N1CCC(C(=O)Nc2ccc3c(c2)OCCO3)CC1,5.7
6,Cc1cnc(SCc2ccc(Cl)cc2Cl)[nH]c1=O,13.5
7,O=C(Nc1cccc(O)c1)c1cc(-c2ccccc2Cl)on1,20.7
8,CS(=O)(=O)N1CCCC(C(=O)c2cccc(Cl)c2)C1 (stereo not shown),19.4
9,CCc1c(C)nc(SCC(=O)N2CCCCC2CC)[nH]c1=O (stereo not shown),-2.66
10,Cc1[nH]c(=O)[nH]c(=O)c1/C=C/C(=O)O,-8.47
11,CNC(=O)c1[nH]cnc1C(=O)Nc1cccc(Cl)c1,-5.99
12,CCOC(=O)c1c(C)n(C)c2ccc(OC)c(NC(=O)CN3CCSCC3)c12,14.7
13,CC1=C(C(=O)N2CCOCC2)C(c2ccc(OC(F)F)cc2)NC(=S)N1c1ccccc1 (stereo not shown),11.9
14,O=S(=O)(Cc1ccccc1)N1CCCC1,2.58
15,Cc1ccc(S(=O)(=O)Nc2ccc(N3CCOCC3)cc2)cc1C,2.95
16,O=C(Nc1cccc(-c2nnc(-c3ccco3)o2)c1)c1ccccc1,-21.5
17,COc1ccc(C(C)(C)C)cc1S(=O)(=O)n1ccnc1C,12.1
18,O=C(Nc1cc2c3c(c1)CC(=O)N3CCC2)c1ccc(F)cc1,-15.8
19,COc1ccc(CNC(=O)CSc2nc(C)cs2)cc1,5.7
20,Cc1cc(C)cc(NC(=S)NC2CC3CCCC(C2)N3Cc2cccs2)c1 (stereo not shown),-52.9
21,COc1cc(F)c(C2=CC(=O)C[C@H](c3ccc(Cl)cc3)C2)cc1F,25.7
22,OC1(C(F)(F)F)CC(O)(C(F)(F)F)n2nc(-c3ccccc3)cc2N1 (stereo not shown),-0.248

# Source: PMC4336329 (PLoS ONE, 2015)
